The text below walks through data of publication PMC4336329 (PLoS ONE, 2015).

Structures are written as SMILES. Out of some 310,000 compounds screened, about 14,000 (4.5%) showed an effect of 50% or more. Effects have a minus sign here. This is one part of the list.
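Further: peak tail current of the secondary pulse compared with the same well before compound.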

For this experiment, the target named is human ether-à-go-go-related gene (hERG) potassium channel (human, UniProt Q12809). Description: primary screen, population patch clamp on CHO cells stably expressing hERG.
Chain of human ether-à-go-go-related gene (hERG) potassium channel (Q12809 whole entry, looked up): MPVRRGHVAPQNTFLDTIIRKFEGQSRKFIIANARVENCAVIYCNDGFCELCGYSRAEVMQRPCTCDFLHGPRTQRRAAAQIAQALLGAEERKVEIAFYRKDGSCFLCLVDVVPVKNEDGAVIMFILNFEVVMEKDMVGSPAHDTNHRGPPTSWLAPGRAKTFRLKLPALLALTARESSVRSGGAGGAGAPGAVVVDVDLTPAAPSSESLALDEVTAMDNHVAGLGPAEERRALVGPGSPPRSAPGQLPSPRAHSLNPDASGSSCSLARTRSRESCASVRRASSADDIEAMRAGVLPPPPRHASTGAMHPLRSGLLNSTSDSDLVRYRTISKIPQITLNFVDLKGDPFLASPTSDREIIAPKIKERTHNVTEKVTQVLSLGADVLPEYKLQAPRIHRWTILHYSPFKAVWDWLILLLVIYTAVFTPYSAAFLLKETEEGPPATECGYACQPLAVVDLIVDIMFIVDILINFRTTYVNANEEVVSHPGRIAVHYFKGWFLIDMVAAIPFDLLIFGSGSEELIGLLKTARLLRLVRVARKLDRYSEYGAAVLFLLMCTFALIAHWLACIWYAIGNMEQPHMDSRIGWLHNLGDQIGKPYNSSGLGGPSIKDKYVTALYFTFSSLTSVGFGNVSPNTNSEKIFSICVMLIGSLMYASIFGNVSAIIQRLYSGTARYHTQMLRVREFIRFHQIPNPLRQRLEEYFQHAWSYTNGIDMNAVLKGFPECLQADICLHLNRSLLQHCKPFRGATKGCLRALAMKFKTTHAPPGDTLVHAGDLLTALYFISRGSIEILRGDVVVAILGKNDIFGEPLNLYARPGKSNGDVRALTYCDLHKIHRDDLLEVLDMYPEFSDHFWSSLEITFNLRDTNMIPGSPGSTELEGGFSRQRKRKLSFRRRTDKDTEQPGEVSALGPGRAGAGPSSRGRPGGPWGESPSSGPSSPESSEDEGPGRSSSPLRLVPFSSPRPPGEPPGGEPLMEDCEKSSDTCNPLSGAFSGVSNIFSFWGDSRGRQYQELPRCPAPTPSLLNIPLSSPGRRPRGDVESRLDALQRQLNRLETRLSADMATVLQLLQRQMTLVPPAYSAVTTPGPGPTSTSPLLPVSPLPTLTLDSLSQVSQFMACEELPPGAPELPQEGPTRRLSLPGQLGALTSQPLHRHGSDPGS
In the case of `CCN(CC)CCn1c(-c2ccccc2)nc(=S)c2c1CC(C)(C)OC2`, the “hERG current change (%, negative = inhibition) at 10uM” value is listed as 2.59%.
The result for `O=C(c1sc2ccccc2c1Cl)N1CCN(c2ncccn2)CC1` reads -9.78%; that for `Cc1cccc(Cn2c(=O)oc3ccc(C)cc32)c1`, 2.47%; that for `CCC(C)NC(=O)C1CCC(CNS(=O)(=O)c2ccccc2)CC1` (centres unmarked), 14.4%.
The same measure for `CCC(C#CCN1CCOCC1)(CC)OCCC#N`: 6.36%; for `CC(=O)c1c(C)[nH]c(C(=O)Nc2ccc(C)c(C)c2)c1C`: 20.5%; for `Cc1noc(NC(=O)c2ccc(Cl)c(Cl)c2)c1Cl`: 10.1%.
The same measure for `CCCn1c(N)c(CC)c(=O)[nH]c1=O`: 30%.
In the case of `Cl.O=C1CC(N2CCN(Cc3ccccc3)CC2)C(=O)N1c1ccc2c(c1)OCCO2` (centres unmarked), the “hERG current change (%, negative = inhibition) at 10uM” value was found to be 5.38%.
The same measure for `O=c1c(C=NCc2cccnc2)c(C(F)(F)F)[nH]n1-c1nc2ccccc2s1`: 9.04%; for `O=C(c1ccc2c(c1)OCO2)N(Cc1cccs1)C1(C(=O)NC2CCCCC2)CCCCC1`: -19.4%.
The same measure for `Cc1ccc(-n2[nH]c(C)c(C=Nc3ccc(C)cn3)c2=O)cc1`: 1.75%; for `O=C(O)c1cc2cc(Cl)cc(Cl)c2oc1=O`: 9.15%; for `C[N+]1(CCC(C(N)=O)(c2ccccc2)c2ccccc2)CCCCC1.[Br-]`: 10.7%.
The result for `O=c1[nH]c(CN(CCO)CCO)nc2c1C1(CCCCC1)Cc1ccccc1-2` reads -10.9%; that for `C=CCn1c(CCc2ccccc2)nnc1SCC(N)=O`, -5.61%.
Take `O=C(CSCc1ccccc1F)NCc1ccccc1`: the “hERG current change (%, negative = inhibition) at 10uM” value is on record as 17.4%.
For `CCN(CC(=O)Nc1ccc(NC(C)=O)cc1)C(=O)/C=C/c1ccc2c(c1)OCO2`, the “hERG current change (%, negative = inhibition) at 10uM” value is on record as 0.823%.
The result for `CCCN1CCC[C@@H](c2cccc(O)c2)C1.Cl` reads -43.1%.
The same measure for `CN(C)C1(CNC(=O)Nc2ccccc2)CCCCC1`: -3.27%.
The same measure for `COc1cccc(C(=O)OCC(=O)NC(=O)NC2CCCC2)c1O`: 19.4%; for `Nc1cc(N)cc(C(=O)OCC(=O)Nc2cc(S(=O)(=O)N3CCCCC3)ccc2Cl)c1`: -2.12%.
Consider `COc1cc2c(cc1OC)C1(Nc3c-2c(C)nn3-c2ccccc2)C(=O)Nc2ccccc21` (centres unmarked), for which the “hERG current change (%, negative = inhibition) at 10uM” value is 3.78%.
The result for `Cc1ccc(C(c2c(C)[nH][nH]c2=O)c2c(C)[nH][nH]c2=O)cc1` reads 16.1%.
`CCOc1ccc(N2CC(C(=O)Nc3ccncc3)CC2=O)cc1` (centres unmarked): the “hERG current change (%, negative = inhibition) at 10uM” value was -23.1%.
The result for `CCN(CC(=O)NCc1ccc(Cl)cc1)S(=O)(=O)c1ccc(NC(C)=O)cc1` reads -39.7%; that for `O=c1c2cccnc2n(-c2ccccc2)n1Cc1c(Cl)cccc1Cl`, 19.9%.
For the compound `CCOC(=O)c1cc(NC(=O)COC)ccc1O`, the “hERG current change (%, negative = inhibition) at 10uM” value amounted to 9.32%.
The same measure for `COCCn1c(SCC(=O)Nc2cc(Cl)ccc2OC)nc2c(c1=O)SC(C)C2` (centres unmarked): -40.9%; for `Fc1ccc(N2CCN(C(=S)NCC3CCCO3)CC2)cc1` (centres unmarked): 9.58%; for `O=C(Cc1ccc([N+](=O)[O-])cc1)Nc1ccc2c(c1)C(=O)NC2=O`: -17.1%.
Consider `COc1ccc(C(C(=O)NCC2CCCO2)N(C(=O)Cn2nnc3ccccc32)c2ccccc2C(C)=O)cc1OC` (centres unmarked), for which the “hERG current change (%, negative = inhibition) at 10uM” value is recorded as -43.5%.
Consider `CC1(C)Cc2c(sc3nn[nH]c(=O)c23)CO1`, for which the “hERG current change (%, negative = inhibition) at 10uM” value is on record as 7.54%.
Turning to `COc1cc(NC(=O)c2ccco2)c(OC)cc1NC(=O)c1cc(OC)c(OC)c(OC)c1`, the “hERG current change (%, negative = inhibition) at 10uM” value came out at 8.6%.
The result for `O=C(NN=C(Cc1ccccc1)Cc1ccccc1)c1ccncc1` reads -20.4%; that for `Cc1ccc(Cn2nc(C)c(C(=O)NCC(c3ccc(F)cc3)N3CCOCC3)c2Cl)cc1` (centres unmarked), -16.7%; that for `NCCCC[C@@H]1NC(=O)c2cc([N+](=O)[O-])cc(I)c2SC[C@@H](C(N)=O)NC(=O)[C@H](CCC(N)=O)NC1=O`, 15.1%.
The same measure for `CC1CCCCN1C(=O)CSc1nc(N)cc(=O)[nH]1` (centres unmarked): 16.9%; for `NS(=O)(=O)c1cccc(NC(=O)CSc2n[nH]c(-c3cccs3)n2)c1`: 1.96%; for `CN(C)C=O.N#Cc1ccccc1OCC(=O)OCC(=O)c1ccc2c(c1)NC(=O)CO2`: 0.877%.
Take `Cc1ccc(NC(=O)CN2CCCC2)cc1.Cl`: the “hERG current change (%, negative = inhibition) at 10uM” value is recorded as 19.1%.
As to `CC(C)(O)C#Cc1ccc(CN2CCCC(CO)(Cc3cccc(Cl)c3)C2)cc1` (centres unmarked), the “hERG current change (%, negative = inhibition) at 10uM” value is reported as -6.28%.
For the compound `CCOC(=O)Cc1nn(Cc2nc(-c3ccc(C#N)cc3)cs2)c(=O)c2ccccc12`, the “hERG current change (%, negative = inhibition) at 10uM” value is -39.9%.
Regarding `O=C(c1cccc([N+](=O)[O-])c1)N1CCN(Cc2ccc3c(c2)OCO3)CC1`, the “hERG current change (%, negative = inhibition) at 10uM” value is listed as -44.3%.
As to `O=C(CN1CCCc2ccccc21)NC(=O)NCc1ccccc1`, the “hERG current change (%, negative = inhibition) at 10uM” value stood at 8.1%.
For `Clc1ccc(-n2nnc(-c3cccnc3)n2)cc1Cl`, the “hERG current change (%, negative = inhibition) at 10uM” value was -30.7%.
The result for `O=C1CC(c2ccccc2Oc2cccc(Cl)c2)C(n2cncn2)C(=O)C1C1NCCc2ccccc21` (centres unmarked) reads -4.4%; that for `Nc1ccc(Oc2ccc3nc(-c4ccccc4)c(-c4ccccc4)nc3c2)cc1`, -3.09%; that for `Cc1ccc2nc(NC(=O)C3CCCN(S(=O)(=O)c4cccc5nsnc45)C3)sc2c1` (centres unmarked), 6.75%.
Take `O=C1CCCC/C1=C/Nc1ccc(S(=O)(=O)Nc2ncccn2)cc1`: the “hERG current change (%, negative = inhibition) at 10uM” value worked out at 4.04%.
The result for `CCOC(=O)C1=C(C)NC2=C(C(=O)CC(C)(C)C2)C1c1ccsc1` (centres unmarked) reads 4.62%.
The same measure for `COc1ccc(C(=O)NCCNC(=O)c2ccccn2)cc1`: 18.7%.
The same measure for `CC[C@@H](Nc1ncnc2c1oc1ccccc12)C(=O)O`: 13.1%.
As to `CC1(C)NC(=O)N(CC(=O)NNC(=O)c2ccccc2F)C1=O`, the “hERG current change (%, negative = inhibition) at 10uM” value is 3.42%.
The same measure for `COc1cc(Cl)c(S(=O)(=O)n2cnc(C)c2)cc1Cl`: 2.25%; for `Cc1csc(NC(=O)c2ccc3ccccc3n2)n1`: 2.75%.
On to `CCOC(=O)/C(C#N)=C/c1cn(CCOc2ccccc2)c2ccccc12`, for which the “hERG current change (%, negative = inhibition) at 10uM” value is given as 8.07%.
The result for `CN1CCN(C(=O)c2cc3sc4ccccc4c3s2)CC1` reads -15.5%.
The same measure for `O=C(COC(=O)CCCOc1ccc(Cl)cc1Cl)NCc1ccc(F)cc1`: 8.59%.
The same measure for `O=C(Nc1sc2c(c1C(=O)O)CCCCC2)c1cccs1`: 56.2%; for `COC(=O)Cc1ccc(NC(=O)c2ccccc2Br)cc1`: 0.8%.
Take `O=C(CN1C(=O)CC(c2ccco2)Sc2ccccc21)Nc1ccccc1F` (centres unmarked): the “hERG current change (%, negative = inhibition) at 10uM” value is recorded as -39.3%.
The same measure for `O=C(c1ccc2c(c1)OCO2)C1CCCN(Cc2ccccn2)C1` (centres unmarked): -30.9%; for `O=S(=O)(c1ccc(F)cc1)N1CCC2(CC1)OCCO2`: 12.5%; for `COc1cccc(NC(=O)CCC(=O)NCc2ccco2)c1`: 17.2%.
The result for `O=C(CCSCc1ccccc1F)NCc1cccnc1` reads -1.23%; that for `COc1ccc(S(=O)(=O)CCC(=O)N2CCN(c3ccc(C(C)=O)cc3)CC2)cc1`, -45.9%.
The result for `COc1cccc(NC(=O)CSc2nc3c(c(-c4ccco4)c2C#N)CCCC3)c1` reads 0.523%; that for `Cc1cc(S(=O)(=O)N2CCC3(CC2)OCCO3)c(C)cc1Cl`, -9.71%.
In the case of `Cc1cc(NC(c2cccnc2)c2ccc3cccnc3c2O)no1` (centres unmarked), the “hERG current change (%, negative = inhibition) at 10uM” value is recorded as -12.4%.
As for `CN(C)CCN(C(=O)c1ccc(N2C(=O)CCC2=O)cc1)c1nc2cc3c(cc2s1)OCCO3.Cl`, the “hERG current change (%, negative = inhibition) at 10uM” value was -2.22%.
The same measure for `Nc1c(C(=O)NCc2ccco2)sc2nc(N3CCOCC3)c3c(c12)CCCC3`: -4.59%; for `CC(=O)c1cccc(NC(=O)c2cc(-c3ccc(F)cc3)on2)c1`: 6.26%; for `O=C(O)c1cccc(Oc2ccccc2[N+](=O)[O-])c1`: 19.4%.
The result for `CCOc1ccc(C(=O)NCC(=O)NCC(c2ccccc2OC)N2CCCC2)cc1` (centres unmarked) reads -13.3%.
As to `Brc1cccc(-c2nnc(-c3ccccc3)o2)c1`, the “hERG current change (%, negative = inhibition) at 10uM” value is reported as 5%.
On to `Cc1ccccc1-c1nc(Cc2ccccc2)no1`, for which the “hERG current change (%, negative = inhibition) at 10uM” value amounted to 11.8%.
The same measure for `O=C(C1CC1)N1CCc2cc(S(=O)(=O)NCCC3=CCCCC3)ccc21`: -12.4%; for `COc1ccc(C(C)=O)cc1CN(C)C.Cl`: 17.1%.
On to `Cc1ccc(-c2cc(C(=O)N3CCN(c4ccc(F)cc4)CC3)c3ccccc3n2)o1`, for which the “hERG current change (%, negative = inhibition) at 10uM” value was -35.7%.
The same measure for `CCN(CC)S(=O)(=O)c1ccc(-c2cn3cc(Cl)ccc3n2)cc1`: 2.07%; for `CSc1ccc(CN(C)C(=O)C(Cc2ccccc2)NC(=O)c2ccccc2)cc1` (centres unmarked): 2.45%; for `O=C(COC(=O)CCc1nc2ccccc2s1)Nc1nc(-c2ccccc2)cs1`: -0.417%.
The same measure for `Cc1nc(-n2nnc3cc(C)c(C)cc32)c2c3c(sc2n1)CCCC3`: -1.48%.
The result for `CC(=O)N(C)c1ccc(C(O)(C(F)(F)F)C(F)(F)F)cc1` reads 14.1%; that for `COc1ccc(CNC(=O)C2CCN(c3cc(C(=O)Nc4cccc(OC)c4)ccn3)CC2)cc1`, -46%; that for `Brc1cc2c(cc1Br)OCCOCCOCCOCCO2`, -76.5%.
With `Oc1ccccc1C=NC1CCCCC1N=Cc1ccccc1O` (centres unmarked), the “hERG current change (%, negative = inhibition) at 10uM” value is given as 16.8%.
The same measure for `O=Cc1cccn1Cc1ccc(Cl)cc1Cl`: -27.8%.
